Measured values taken from the supplement of paper PMC11741623.
The other results are listed elsewhere or left out. Interaction screen of human proteins with wild-type SARS-CoV-2 proteins by split-DHFR complementation in yeast, 1 µg/mL methotrexate. Value = fitness of the pair (three or more lineages) minus that of the viral protein without a human partner, on a scale set by negative (0) and fused positive (1) controls, mean of up to three cultures; higher = more likely to interact. Active = false discovery rate below 0.05 (one-sided t-test) in at least one culture. Nearly all pairs are not hits, and differences among them are mostly noise (correlation between cultures about 0.3); most hits were seen in one culture only. Human sequences are the Swiss-Prot entries looked up by gene name; the clone may be another isoform. NSP2 values were corrected by the authors for a growth advantage. Listed are human proteins with a hit and a random twelfth of the others.

Experiments:
Assay in all cases: yeast fitness gain over the viral ORF with no human partner (scaled fitness); higher = more likely to interact
SARS-CoV-2 E = target: SARS-CoV-2 E
Experimental: (§1)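 Split mouse DHFR complementation in pooled diploid yeast: human ORFeome clones carry one fragment and viral ORFs the other; barcoded lineages compete in 1 µg/mL methotrexate and fitness is read by barcode sequencing in up to three cultures.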

SARS-CoV-2 M = target: SARS-CoV-2 M
Experimental: as §1

SARS-CoV-2 N = target: SARS-CoV-2 N
Experimental: as §1

SARS-CoV-2 NSP1 = target: SARS-CoV-2 NSP1
Experimental: as §1

SARS-CoV-2 NSP10 = target: SARS-CoV-2 NSP10
Experimental: as §1

SARS-CoV-2 NSP12 = target: SARS-CoV-2 NSP12
Experimental: as §1

SARS-CoV-2 NSP13 = target: SARS-CoV-2 NSP13
Experimental: as §1

SARS-CoV-2 NSP14 = target: SARS-CoV-2 NSP14
Experimental: as §1

SARS-CoV-2 NSP15 = target: SARS-CoV-2 NSP15
Experimental: as §1

SARS-CoV-2 NSP16 = target: SARS-CoV-2 NSP16
Experimental: as §1

SARS-CoV-2 NSP2 = target: SARS-CoV-2 NSP2
Experimental: as §1

SARS-CoV-2 NSP4 = target: SARS-CoV-2 NSP4
Experimental: as §1

SARS-CoV-2 NSP5 = target: SARS-CoV-2 NSP5
Experimental: as §1

SARS-CoV-2 NSP6 = target: SARS-CoV-2 NSP6
Experimental: as §1

SARS-CoV-2 NSP7 = target: SARS-CoV-2 NSP7
Experimental: as §1

SARS-CoV-2 NSP8 = target: SARS-CoV-2 NSP8
Experimental: as §1

SARS-CoV-2 NSP9 = target: SARS-CoV-2 NSP9
Experimental: as §1

SARS-CoV-2 ORF10 = target: SARS-CoV-2 ORF10
Experimental: as §1

SARS-CoV-2 ORF3A = target: SARS-CoV-2 ORF3A
Experimental: as §1

SARS-CoV-2 ORF3B = target: SARS-CoV-2 ORF3B
Experimental: as §1

SARS-CoV-2 ORF6 = target: SARS-CoV-2 ORF6
Experimental: as §1

SARS-CoV-2 ORF7A = target: SARS-CoV-2 ORF7A
Experimental: as §1

SARS-CoV-2 ORF7B = target: SARS-CoV-2 ORF7B
Experimental: as §1

SARS-CoV-2 ORF8 = target: SARS-CoV-2 ORF8
Experimental: as §1

SARS-CoV-2 ORF9B = target: SARS-CoV-2 ORF9B
Experimental: as §1

[1] = target: SARS-CoV-2 ORF9Bwu (the 73-codon ORF)
Experimental: as §1

SARS-CoV-2 S = target: SARS-CoV-2 S
Experimental: as §1

Measured: yeast fitness gain

B1: TEX30, Q5JUR7 (protein)
chain: MSHTEVKLKIPFGNKLLDAVCLVPNKSLTYGIILTHGASGDMNLPHLMSLASHLASHGFFCLRFTCKGLNIVHRIKAYKSVLNYLKTSGEYKLAGVFLGGRSMGSRAAASVMCHIEPDDGDDFVRGLICISYPLHHPKQQHKLRDEDLFRLKEPVLFVSGSADEMCEKNLLEKVAQKMQAPHKIHWIEKANHSMAVKGRSTNDVFKEINTQILFWIQEITEMDKKCH
inactive: SARS-CoV-2 E -0.0242 | SARS-CoV-2 M 0.0467 | SARS-CoV-2 N 0.201 | SARS-CoV-2 NSP1 = 0.0317 | SARS-CoV-2 NSP10 = -0.00713 | SARS-CoV-2 NSP12 = -0.0412 | SARS-CoV-2 NSP13 = -0.0123 | SARS-CoV-2 NSP14 = -0.0985 | SARS-CoV-2 NSP15 = -0.0294 | SARS-CoV-2 NSP16 = 0.0653 | SARS-CoV-2 NSP2 = -0.118 | SARS-CoV-2 NSP4 = 0.0828 | SARS-CoV-2 NSP5 = 0.00067 | SARS-CoV-2 NSP6 = 0.0206 | SARS-CoV-2 NSP7 = 0.0405 | SARS-CoV-2 NSP8 = -0.056 | SARS-CoV-2 NSP9 = -0.0323 | SARS-CoV-2 ORF10 = -0.0425 | SARS-CoV-2 ORF3A -0.132 | SARS-CoV-2 ORF3B 0.0358 | SARS-CoV-2 ORF6 = -0.0119 | SARS-CoV-2 ORF7A -0.00959 | SARS-CoV-2 ORF7B -0.0644 | SARS-CoV-2 ORF8 = 0.0513 | SARS-CoV-2 ORF9B 0.0125 | [1] 0.0476 | SARS-CoV-2 S -0.0859

B2: PSMB9, P28065 (protein)
chain: MLRAGAPTGDLPRAGEVHTGTTIMAVEFDGGVVMGSDSRVSAGEAVVNRVFDKLSPLHERIYCALSGSAADAQAVADMAAYQLELHGIELEEPPLVLAAANVVRNISYKYREDLSAHLMVAGWDQREGGQVYGTLGGMLTRQPFAIGGSGSTFIYGYVDAAYKPGMSPEECRRFTTDAIALAMSRDGSSGGVIYLVTITAAGVDHRVILGNELPKFYDE
inactive: SARS-CoV-2 E -0.0125 | SARS-CoV-2 M -0.196 | SARS-CoV-2 N 0.0716 | SARS-CoV-2 NSP1 = -0.0145 | SARS-CoV-2 NSP10 = -0.154 | SARS-CoV-2 NSP12 = 0.0782 | SARS-CoV-2 NSP13 = 0.0559 | SARS-CoV-2 NSP14 = 0.108 | SARS-CoV-2 NSP15 = 0.00764 | SARS-CoV-2 NSP16 = 0.00855 | SARS-CoV-2 NSP2 = -0.17 | SARS-CoV-2 NSP4 = -0.0573 | SARS-CoV-2 NSP5 = 0.0897 | SARS-CoV-2 NSP6 = 0.0617 | SARS-CoV-2 NSP7 = 0.0381 | SARS-CoV-2 NSP8 = -0.0273 | SARS-CoV-2 NSP9 = 0.0146 | SARS-CoV-2 ORF10 = -0.00967 | SARS-CoV-2 ORF3A 0.128 | SARS-CoV-2 ORF3B 0.0255 | SARS-CoV-2 ORF6 = 0.0137 | SARS-CoV-2 ORF7A -0.0904 | SARS-CoV-2 ORF7B -0.0531 | SARS-CoV-2 ORF8 = -0.000703 | SARS-CoV-2 ORF9B 0.03 | [1] -0.0329 | SARS-CoV-2 S -0.0491

B3: KRT33B, Q14525 (protein)
chain: MPYNFCLPSLSCRTSCSSRPCVPPSCHGYTLPGACNIPANVSNCNWFCEGSFNGSEKETMQFLNDRLASYLEKVRQLERDNAELENLIRERSQQQEPLLCPSYQSYFKTIEELQQKILCSKSENARLVVQIDNAKLAADDFRTKYQTEQSLRQLVESDINSLRRILDELTLCRSDLEAQMESLKEELLSLKQNHEQEVNTLRCQLGDRLNVEVDAAPAVDLNQVLNETRNQYEALVETNRREVEQWFATQTEELNKQVVSSSEQLQSYQAEIIELRRTVNALEIELQAQHNLRYSLENTLTESEARYSSQLSQVQSLITNVESQLAEIRSDLERQNQEYQVLLDVRARLECEINTYRSLLESEDCKLPSNPCATTNACEKPIGSCVTNPCGPRSRCGPCNTFGY
inactive: SARS-CoV-2 E -0.0371 | SARS-CoV-2 M -0.114 | SARS-CoV-2 N 0.0744 | SARS-CoV-2 NSP1 = -0.0142 | SARS-CoV-2 NSP10 = -0.0163 | SARS-CoV-2 NSP12 = -0.0199 | SARS-CoV-2 NSP13 = 0.0353 | SARS-CoV-2 NSP15 = -0.0376 | SARS-CoV-2 NSP16 = -0.0604 | SARS-CoV-2 NSP2 = -0.164 | SARS-CoV-2 NSP4 = -0.227 | SARS-CoV-2 NSP5 = -0.0176 | SARS-CoV-2 NSP6 = 0.0644 | SARS-CoV-2 NSP7 = 0.0272 | SARS-CoV-2 NSP8 = 0.0446 | SARS-CoV-2 NSP9 = 0.0277 | SARS-CoV-2 ORF10 = -0.0126 | SARS-CoV-2 ORF3A 0.0279 | SARS-CoV-2 ORF3B 0.0527 | SARS-CoV-2 ORF6 = -0.0308 | SARS-CoV-2 ORF7A -0.0144 | SARS-CoV-2 ORF7B 0.058 | SARS-CoV-2 ORF8 = -0.0203 | SARS-CoV-2 ORF9B -0.00506 | [1] -0.0415 | SARS-CoV-2 S 0.0138

B4: ANXA7, P20073 (protein)
chain: MSYPGYPPTGYPPFPGYPPAGQESSFPPSGQYPYPSGFPPMGGGAYPQVPSSGYPGAGGYPAPGGYPAPGGYPGAPQPGGAPSYPGVPPGQGFGVPPGGAGFSGYPQPPSQSYGGGPAQVPLPGGFPGGQMPSQYPGGQPTYPSQINTDSFSSYPVFSPVSLDYSSEPATVTQVTQGTIRPAANFDAIRDAEILRKAMKGFGTDEQAIVDVVANRSNDQRQKIKAAFKTSYGKDLIKDLKSELSGNMEELILALFMPPTYYDAWSLRKAMQGAGTQERVLIEILCTRTNQEIREIVRCYQSEFGRDLEKDIRSDTSGHFERLLVSMCQGNRDENQSINHQMAQEDAQRLYQAGEGRLGTDESCFNMILATRSFPQLRATMEAYSRMANRDLLSSVSREFSGYVESGLKTILQCALNRPAFFAERLYYAMKGAGTDDSTLVRIVVTRSEIDLVQIKQMFAQMYQKTLGTMIAGDTSGDYRRLLLAIVGQ
inactive: SARS-CoV-2 E -0.0635 | SARS-CoV-2 M 0.0762 | SARS-CoV-2 N 0.00795 | SARS-CoV-2 NSP1 = -0.015 | SARS-CoV-2 NSP10 = 0.0282 | SARS-CoV-2 NSP12 = 0.0299 | SARS-CoV-2 NSP13 = 0.0398 | SARS-CoV-2 NSP14 = 0.0768 | SARS-CoV-2 NSP15 = -0.0301 | SARS-CoV-2 NSP16 = -0.0283 | SARS-CoV-2 NSP2 = -0.0599 | SARS-CoV-2 NSP4 = 0.108 | SARS-CoV-2 NSP5 = 0.0876 | SARS-CoV-2 NSP6 = 0.11 | SARS-CoV-2 NSP7 = 0.018 | SARS-CoV-2 NSP8 = 0.0523 | SARS-CoV-2 NSP9 = -0.113 | SARS-CoV-2 ORF10 = -0.0175 | SARS-CoV-2 ORF3A 0.000427 | SARS-CoV-2 ORF3B 0.00838 | SARS-CoV-2 ORF6 = -0.00566 | SARS-CoV-2 ORF7A -0.0199 | SARS-CoV-2 ORF7B 0.0075 | SARS-CoV-2 ORF8 = 0.0533 | SARS-CoV-2 ORF9B 0.0604 | [1] -0.0275 | SARS-CoV-2 S 0.0409
